{"source": "paper PMC4336329", "about": "(PLoS ONE, 2015)", "note": "Among all 310,000 compounds or so, about 2,200 (0.71%) showed an effect of 50% or more. The effect is printed as a negative number. The list shows a part of the results.", "data": [{"molecular_target": "human ether-à-go-go-related gene (hERG) potassium channel (human, UniProt Q12809)", "sequence (Q12809 whole entry, looked up)": "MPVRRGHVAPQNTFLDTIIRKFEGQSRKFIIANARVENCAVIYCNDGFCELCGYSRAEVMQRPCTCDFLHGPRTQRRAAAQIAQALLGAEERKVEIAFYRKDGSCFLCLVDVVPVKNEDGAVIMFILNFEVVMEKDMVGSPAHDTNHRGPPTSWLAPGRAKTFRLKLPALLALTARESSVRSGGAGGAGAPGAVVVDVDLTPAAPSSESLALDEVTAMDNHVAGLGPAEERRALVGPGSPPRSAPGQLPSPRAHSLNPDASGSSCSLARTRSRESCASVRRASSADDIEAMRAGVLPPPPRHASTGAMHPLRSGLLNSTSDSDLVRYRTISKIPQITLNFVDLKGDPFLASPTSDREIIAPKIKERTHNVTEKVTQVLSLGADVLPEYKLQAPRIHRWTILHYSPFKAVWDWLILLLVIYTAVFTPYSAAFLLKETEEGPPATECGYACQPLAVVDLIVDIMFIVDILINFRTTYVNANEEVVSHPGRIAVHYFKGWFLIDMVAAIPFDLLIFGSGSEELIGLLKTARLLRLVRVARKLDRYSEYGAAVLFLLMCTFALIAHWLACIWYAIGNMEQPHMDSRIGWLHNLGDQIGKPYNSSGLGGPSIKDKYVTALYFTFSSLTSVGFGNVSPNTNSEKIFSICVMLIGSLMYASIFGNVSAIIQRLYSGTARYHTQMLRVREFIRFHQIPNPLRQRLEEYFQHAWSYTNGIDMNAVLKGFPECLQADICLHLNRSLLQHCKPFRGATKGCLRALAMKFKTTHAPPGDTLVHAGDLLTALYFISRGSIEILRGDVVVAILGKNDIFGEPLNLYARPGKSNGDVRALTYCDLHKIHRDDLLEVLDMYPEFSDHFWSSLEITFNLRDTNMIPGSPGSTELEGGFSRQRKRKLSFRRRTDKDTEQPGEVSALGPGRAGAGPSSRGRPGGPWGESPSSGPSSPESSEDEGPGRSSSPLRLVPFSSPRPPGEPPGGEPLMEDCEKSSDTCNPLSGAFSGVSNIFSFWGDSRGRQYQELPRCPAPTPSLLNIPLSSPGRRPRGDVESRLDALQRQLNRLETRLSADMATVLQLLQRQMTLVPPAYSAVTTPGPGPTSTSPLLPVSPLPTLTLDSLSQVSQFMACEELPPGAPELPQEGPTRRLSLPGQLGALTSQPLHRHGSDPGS", "assay": "primary screen, population patch clamp on CHO cells stably expressing hERG", "units": {"hERG current change (%, negative = inhibition) at 1uM": "%"}, "values": [{"smiles": "COc1cccc(NC(=O)CN2C(=O)NC(C)(CC(C)C)C2=O)c1", "note": "(stereo not shown)", "hERG current change (%, negative = inhibition) at 1uM": 11.4}, {"smiles": "CCCCOC(=O)c1ccc(NC(=O)CSC2=Nc3ccccc3C3CC=NN23)cc1", "note": "(stereo not shown)", "hERG current change (%, negative = inhibition) at 1uM": 19.2}, {"smiles": "O=C(CN(Cc1ccc(F)cc1)C(=O)CCC(=O)Nc1ccccn1)NCc1ccco1", "hERG current change (%, negative = inhibition) at 1uM": -3.24}, {"smiles": "CCN(CC)S(=O)(=O)c1ccc(N2CCCC2)c(NC(=O)Cc2c(F)cccc2Cl)c1", "hERG current change (%, negative = inhibition) at 1uM": 12.7}, {"smiles": "NC(=O)COC(=O)c1c2c(nc3ccccc13)CCC2", "hERG current change (%, negative = inhibition) at 1uM": 16.2}, {"smiles": "COc1ccc(C2=Nn3c(nnc3-c3ccc(OC)cc3)SC2)cc1", "hERG current change (%, negative = inhibition) at 1uM": -23.1}, {"smiles": "CCOCCCN1C(=O)CN(C2CCC(C)CC2)C(=O)C1c1ccc(C)cc1", "note": "(stereo not shown)", "hERG current change (%, negative = inhibition) at 1uM": 0.255}, {"smiles": "COc1ccc(S(=O)(=O)N2CCC3(CC2)CC(=O)c2ccccc2O3)cc1OC", "hERG current change (%, negative = inhibition) at 1uM": 15.2}, {"smiles": "CCOC(=O)C1CCN(S(=O)(=O)c2cc(Cl)c(C)cc2OC)CC1", "hERG current change (%, negative = inhibition) at 1uM": 3.53}, {"smiles": "CCOc1ccc2nc(NC(=O)C3CCN(C(=O)c4ccco4)CC3)sc2c1", "hERG current change (%, negative = inhibition) at 1uM": 10.8}, {"smiles": "COC(=O)c1cc2ccsc2n1Cc1ccccc1F", "hERG current change (%, negative = inhibition) at 1uM": -2.01}, {"smiles": "O=C(CSc1nc2c(c(=O)n1-c1ccc(Cl)cc1)SCC2)N1CCCC1", "hERG current change (%, negative = inhibition) at 1uM": 3.91}, {"smiles": "CN1CCN(c2ccc(NC(=O)Cc3ccccc3)cc2)CC1", "hERG current change (%, negative = inhibition) at 1uM": 7.46}, {"smiles": "CCC(=O)N1CCc2cc(S(=O)(=O)N3CCc4ccccc43)ccc21", "hERG current change (%, negative = inhibition) at 1uM": 4.8}, {"smiles": "COCCCNc1nc2nonc2nc1N(C)CC1CCCN1C", "note": "(stereo not shown)", "hERG current change (%, negative = inhibition) at 1uM": 7.38}, {"smiles": "COc1ccc(C(=O)NC(=S)Nc2cccc3cc(O)ccc23)cc1OC", "hERG current change (%, negative = inhibition) at 1uM": 14.1}, {"smiles": "COc1ccc(NC(C)=O)cc1NC(=O)CN1CCN(CC(=O)Nc2ccccc2Cl)CC1", "hERG current change (%, negative = inhibition) at 1uM": -14.3}, {"smiles": "CCn1c(CC(=O)Nc2ccccc2F)nnc1SCC(=O)Nc1nncs1", "hERG current change (%, negative = inhibition) at 1uM": 6.77}, {"smiles": "CCOc1ccc(N2C(=O)CC(=O)NC2=O)cc1", "hERG current change (%, negative = inhibition) at 1uM": 16.5}, {"smiles": "Cn1nc(C(F)(F)F)c(-c2ccc(Br)cc2)c1NC(=O)c1nccnc1C(=O)O", "hERG current change (%, negative = inhibition) at 1uM": 15.8}, {"smiles": "COc1cccc(NC(=O)N2CCC(C(N)=O)(N3CCCCC3)CC2)c1", "hERG current change (%, negative = inhibition) at 1uM": 8.81}, {"smiles": "O=C(CSc1ccc(-c2ccccn2)nn1)c1ccc(F)cc1", "hERG current change (%, negative = inhibition) at 1uM": 10.7}, {"smiles": "Cc1ccc(CNC(=O)Cn2cncn2)cc1", "hERG current change (%, negative = inhibition) at 1uM": 12.4}, {"smiles": "Cc1ccc(S(=O)(=O)N2CC[C@@H]2C(=O)O)cc1", "hERG current change (%, negative = inhibition) at 1uM": 9.58}, {"smiles": "CCc1ccc(-c2cc(C)no2)cc1S(=O)(=O)NCc1ccc(OC)c(OC)c1", "hERG current change (%, negative = inhibition) at 1uM": 11.9}, {"smiles": "CCN(c1ccc(C)c(C)c1)S(=O)(=O)c1c(C)[nH]c(=O)[nH]c1=O", "hERG current change (%, negative = inhibition) at 1uM": 14.9}, {"smiles": "Cc1[nH]c(=S)c(C#N)c(C)c1C(=O)Nc1ccccc1", "hERG current change (%, negative = inhibition) at 1uM": 13}, {"smiles": "CCCCN(CC)CCNC(=O)c1cc2c(-c3ccccc3F)nn(C)c2s1", "hERG current change (%, negative = inhibition) at 1uM": -0.295}, {"smiles": "O=[N+]([O-])c1cc(-c2ncccn2)cs1", "hERG current change (%, negative = inhibition) at 1uM": 8.85}, {"smiles": "O=C1c2ccccc2NC(c2cn[nH]c2-c2ccc(Cl)cc2)N1O", "note": "(stereo not shown)", "hERG current change (%, negative = inhibition) at 1uM": 6.82}, {"smiles": "O=C(CCc1ccc(Oc2cc([N+](=O)[O-])cc([N+](=O)[O-])c2)cc1)NC1CCCC1", "hERG current change (%, negative = inhibition) at 1uM": 0.484}, {"smiles": "CCOc1ccc(N2C(=O)C(=O)/C(=C(/O)c3ccccc3)C2c2ccccc2[N+](=O)[O-])cc1", "note": "(stereo not shown)", "hERG current change (%, negative = inhibition) at 1uM": 15}, {"smiles": "CN(CC(=O)Nc1ccc(SC(F)F)cc1)C1CCCCC1", "hERG current change (%, negative = inhibition) at 1uM": -41.9}, {"smiles": "CC(=O)C12C3C4C(C5C1C3C5(Br)C41OCCO1)C21OCCO1", "note": "(stereo not shown)", "hERG current change (%, negative = inhibition) at 1uM": 12.4}, {"smiles": "Nc1c(Cl)ncnc1NCCc1ccc(O)cc1", "hERG current change (%, negative = inhibition) at 1uM": 9.02}, {"smiles": "CC(=O)c1cccc(NC(=O)NNC(=O)c2ccc(Cl)cc2Cl)c1", "hERG current change (%, negative = inhibition) at 1uM": 8.81}, {"smiles": "CC(=O)c1cc(C#N)c(SCC(=O)Nc2nccs2)nc1C", "hERG current change (%, negative = inhibition) at 1uM": 18.9}, {"smiles": "CCSc1nnc(-c2ccc(Cl)cc2Cl)o1", "hERG current change (%, negative = inhibition) at 1uM": 15.5}, {"smiles": "CS(=O)(=O)N1CCN(c2ccccc2[N+](=O)[O-])CC1", "hERG current change (%, negative = inhibition) at 1uM": 10.7}, {"smiles": "Cc1nnsc1C(=O)NC1CCCc2c1cnn2-c1ccc(F)cc1F", "note": "(stereo not shown)", "hERG current change (%, negative = inhibition) at 1uM": 18.2}, {"smiles": "CCOC(=O)c1ccc(NS(=O)(=O)c2cc(-c3nnnn3CC)ccc2OC)cc1", "hERG current change (%, negative = inhibition) at 1uM": 13.7}, {"smiles": "COc1ccccc1/C=C/C=N\\N1CCN(Cc2ccccc2Cl)CC1.Cl", "hERG current change (%, negative = inhibition) at 1uM": 8.19}, {"smiles": "Cc1ccc(OCCNS(=O)(=O)c2ccc(N3CCCC3=O)cc2)cc1", "hERG current change (%, negative = inhibition) at 1uM": 7.63}, {"smiles": "Cc1cc(C(F)F)nn1CC(=O)NCc1ccco1", "hERG current change (%, negative = inhibition) at 1uM": 18.1}, {"smiles": "CCc1ccc(C(=O)Nc2nc3ccccc3[nH]2)cc1", "hERG current change (%, negative = inhibition) at 1uM": 12.4}, {"smiles": "O=C(CSc1nnc(-c2ccco2)n1-c1ccccc1)NCCc1ccccc1", "hERG current change (%, negative = inhibition) at 1uM": -29.6}, {"smiles": "O=C(O)/C=C/c1cccc2c1OCCO2", "hERG current change (%, negative = inhibition) at 1uM": -4.76}, {"smiles": "CCC(=O)N1CCN(c2ccc(NC(=S)NC(=O)COc3ccccc3)cc2)CC1", "hERG current change (%, negative = inhibition) at 1uM": -9.33}, {"smiles": "O=C(CSCc1ccccc1)N1CCc2ccccc21", "hERG current change (%, negative = inhibition) at 1uM": 7.33}, {"smiles": "CC1Oc2ccccc2N(CC(=O)c2cccc(Cl)c2)C1=O", "note": "(stereo not shown)", "hERG current change (%, negative = inhibition) at 1uM": -1.55}, {"smiles": "COC(=O)c1cc(OC)nc2ccc(Br)cc12", "hERG current change (%, negative = inhibition) at 1uM": 2.46}, {"smiles": "O=C(CSc1ccc(Br)cc1)N1CCN(S(=O)(=O)c2ccccc2)CC1", "hERG current change (%, negative = inhibition) at 1uM": 0.246}, {"smiles": "Cc1cccnc1NC(=O)CSc1ccc2c(c1)OCCO2", "hERG current change (%, negative = inhibition) at 1uM": 8.52}, {"smiles": "Br.O=S1(=O)C=CC(Sc2nc3ccccc3[nH]2)C1", "note": "(stereo not shown)", "hERG current change (%, negative = inhibition) at 1uM": 6.35}, {"smiles": "COc1ccc(C2C(C#N)=C(N)OC3=C2C(=O)CC(C)(C)C3)cc1Cn1cc([N+](=O)[O-])cn1", "note": "(stereo not shown)", "hERG current change (%, negative = inhibition) at 1uM": -1.19}, {"smiles": "O=C(NC1CCCC1)C(c1ccc(F)cc1)N(Cc1ccc(F)cc1)C(=O)CCl", "note": "(stereo not shown)", "hERG current change (%, negative = inhibition) at 1uM": 10.9}, {"smiles": "CSc1nc(-c2ccccc2)nc(NC(=O)C(C)C)c1C(C)=O", "hERG current change (%, negative = inhibition) at 1uM": 8.87}, {"smiles": "CC(C)(C)Sc1ccc(/C=N/O)cc1[N+](=O)[O-]", "hERG current change (%, negative = inhibition) at 1uM": 11.5}]}]}
